Assay results as given in PubChem BioAssay AID1347428 (National Center for Advancing Translational Sciences (NCATS), 2020).
The campaign covered roughly 91,000 compounds. About 290 (0.32%) were called active. Inconclusive means that the source gave no clear call. Such entries were picked first, then a sample of the others. Calls come from the whole dose curve; as a rule, active = well fitted inhibition curve with a large enough effect; inconclusive = small, poorly fitted or top-dose-only effect; inactive = no such curve, though single readings can be large or run the other way. Potencies beside an inconclusive call are fits to weak or partial responses and may not hold up.

These compounds were tested against Single-stranded DNA cytosine deaminase (Homo sapiens) (UniProt Q9GZX7) (assay: Primary qHTS assay for inhibitors of Activation Induced Cytidine Deaminase (AID): AID signal). Details: AID deamination FRET fluorescence, UDG-coupled, 4 h; activity change, negative = inhibition: at 115 µM (top of the series).
UniProt Q9GZX7, sequence (Q9GZX7 whole entry, looked up): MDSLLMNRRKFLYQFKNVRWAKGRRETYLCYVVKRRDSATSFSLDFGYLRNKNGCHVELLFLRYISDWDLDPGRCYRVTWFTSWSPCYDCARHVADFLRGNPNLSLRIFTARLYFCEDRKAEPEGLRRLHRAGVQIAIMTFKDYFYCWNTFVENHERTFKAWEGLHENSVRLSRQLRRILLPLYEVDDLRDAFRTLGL
% is set by controls: 0 for no effect and ±100 for the full control effect; potency is the fitted concentration of half-maximal effect; tags give direction and shape of the fitted curve.
Note: nearly all actives have a fitted effect of over 25% in size.

Row | SMILES | Potency | activity change, negative = inhibition
1 | COc1ccc(Cn2c(SCc3ccc(C(=O)NC4CCCC4)cc3)nc3ccncc32)cc1 | inconclusive: 20 µM [inhibitor, full curve] | –
2 | COc1cc2c(c(OC(=O)c3ccccc3)c1OC)CC(=O)CCC2 | – | inactive: -10.1%
3 | Brc1ccc(-c2noc(-c3cc(-c4ccco4)n[nH]3)n2)cc1 | – | inactive: 70%
4 | CC(C)C(C)NC(=O)CCc1ccc(C#N)cc1 (stereo not drawn) | – | inactive: 8.43%
5 | Cc1cccc(CN2C(=O)c3ccccc3S(=O)(=O)c3ccc(C(=O)NCCC4=CCCCC4)cc32)c1 | inconclusive: 79.4 µM [inhibitor, partial curve, poor fit] | –
6 | CC(C)(C)CC(=O)Nc1cccc(C(=O)O)c1 | – | inactive: 10.1%
7 | Cc1ccc(Nc2c(-c3cccs3)nc3nc(C)cc(C)n23)cc1 | inconclusive: 50.1 µM [inhibitor, partial curve, poor fit] | –
8 | Cc1oc2ncnc(N3CCCCC3)c2c1C(=O)N1CCN(c2cccc(C(F)(F)F)c2)CC1 | inconclusive: 79.4 µM [inhibitor, single point] | –
9 | CCOc1ccc(CCNC(=O)c2cn(CC)c3ccc(S(=O)(=O)N4CCc5ccccc5C4)cc3c2=O)cc1OCC | inconclusive: 44.7 µM [inhibitor, partial curve, poor fit] | –
10 | Cc1cccc(-c2nc(C#N)c(N3CCOCC3)o2)c1 | – | inactive: 0.69%
11 | CCc1ccccc1N1C(=O)N(Cc2ccc(C#N)cc2)c2ccccc2S1(=O)=O | inconclusive: 8.91 µM [inhibitor, full curve, poor fit] | –
12 | Cc1cccc(C)c1OCCn1c(C2CC(=O)N(c3cccc(Cl)c3)C2)nc2ccccc21 (stereo not drawn) | inconclusive: 15.8 µM [inhibitor, full curve] | –
13 | Cc1ccc(S(=O)(=O)/C(C#N)=C\c2ccc(F)cc2)cc1 | inconclusive: 35.5 µM [inhibitor, full curve] | –
14 | COc1ccc(Cl)cc1NC(=O)c1c(NCc2ccc(C)o2)sc2c1CCCCC2 | inconclusive: 50.1 µM [inhibitor, partial curve, poor fit] | –
15 | CCC1CCCCN1C(=O)Cn1c(=O)n(CCCCCC(=O)NCc2ccccc2)c(=O)c2sccc21 (stereo not drawn) | inconclusive: 100 µM [inhibitor, single point] | –
16 | CCn1c(C(=O)NCCc2ccc(OC)c(OC)c2)cc2sc(Cl)cc21 | inconclusive: 79.4 µM [inhibitor, single point] | –
17 | CC1CCN(S(=O)(=O)c2cn(CC(=O)Nc3cccc(C(F)(F)F)c3)c(=O)c3ccccc23)CC1 | inconclusive: 22.4 µM [inhibitor, full curve] | –
18 | CCn1c(SC(C)C(=O)Nc2nccs2)nnc1-c1ccco1 (stereo not drawn) | – | inactive: -4.7%
19 | COc1cc(C(CC(=O)NCc2ccc(F)cc2)N2Cc3ccccc3C2=O)cc(OC)c1OC (stereo not drawn) | inconclusive: 100 µM [inhibitor, single point] | –
20 | COc1ccccc1CNC(=O)C1CCCN(c2nc3ccccc3n3cccc23)C1 (stereo not drawn) | inconclusive: 14.1 µM [inhibitor, full curve, poor fit] | –
21 | CCC(C(=O)Nc1cc(Cl)ccc1OC)n1nc(-c2ccccc2)ccc1=O (stereo not drawn) | inconclusive: 44.7 µM [inhibitor, partial curve, poor fit] | –

Row | SMILES | Potency | activity change, negative = inhibition
22 | Cn1c(=O)c2nc(SCCC(=O)O)n(C)c2n(C)c1=O | – | inactive: 1.6%
23 | CC1=C(c2ccc(C)c(C)c2)S(=O)(=O)N(Cc2ccc(C(=O)NCc3cccc(C)c3)cc2)C1=O | inconclusive: 3.55 µM [inhibitor, full curve, poor fit] | –
24 | COc1ccc(C(=O)NCC(c2cccnc2)N2CCc3ccccc32)cc1 (stereo not drawn) | active: 100 µM | –
25 | CC(C)OCCCNC(=O)c1ccc2c(c1)N(Cc1c(F)cccc1Cl)C(=O)c1ccccc1S2 | inconclusive: 44.7 µM [inhibitor, partial curve, poor fit] | –
26 | Cc1ccc(Nc2c(-c3c[nH]c4ccccc34)nc3cc(C)ccn23)cc1 | inconclusive: 8.91 µM [inhibitor, full curve, poor fit] | –
27 | CCOC(=O)Cn1c(=O)oc2cc(S(=O)(=O)N3CCN(c4cccc(C)c4C)CC3)ccc21 | inconclusive: 89.1 µM [inhibitor, single point] | –
28 | Cc1ccc(-c2c(-c3cn4ccc(C)cc4n3)c(=O)n(C)c(=O)n2C)cc1 | – | inactive: -10.2%
29 | O=C(O)c1cc(-n2c(/C=C\c3ccc(F)cc3)nc3ccccc3c2=O)ccc1Cl | inconclusive: 22.4 µM [inhibitor, full curve, poor fit] | –
30 | Cc1ccc(Cl)cc1-n1ncc2c(NC3CCCCCC3)ncnc21 | inconclusive: 28.2 µM [inhibitor, full curve, poor fit] | –
31 | CCn1cc2nc(SCC(=O)Nc3ccc(C)cc3C)n(Cc3ccc(C)cc3)c(=O)c2n1 | inconclusive: 3.55 µM [inhibitor, full curve, poor fit] | –
32 | COc1ccc2nc(/C=C/c3cccc(F)c3)sc2c1 | – | inactive: 1.63%
33 | N#C/C(=C\c1ccnc2ccccc12)c1nc2ccccc2s1 | inconclusive: 31.6 µM [inhibitor, partial curve] | –
34 | COc1ccc(-c2noc(CSc3nnc(-c4ccncc4)n3-c3ccc(C)cc3)n2)cc1OC | inconclusive: 89.1 µM [inhibitor, single point] | –
35 | CC/C=C(/C)C(=O)NCC(c1cccs1)N(C)C (stereo not drawn) | – | inactive: -2.5%
36 | N#CC(C(=O)CCc1ccccc1)C(=O)NCc1ccccc1 (stereo not drawn) | – | inactive: -12.6%
37 | Cc1ccc(C(=O)NCCc2nc3cc(NC(=O)C4CCCCC4)ccc3n2C)cc1F | – | inactive: -1.38%
38 | CCOc1ccccc1CNC(=O)c1cnc2sc(N3CCCCCC3)nn2c1=O | inconclusive: 56.2 µM [inhibitor, partial curve, poor fit] | –
39 | CCOc1cccc(CC(=O)N2CCc3c([nH]c4ccccc34)C2c2ccc(Cl)cc2)c1OCC (stereo not drawn) | inconclusive: 12.6 µM [inhibitor, full curve, poor fit] | –
40 | CC1CCCN(C(C)C(=O)N(C)CC(=O)Nc2ccccc2C(F)(F)F)C1 (stereo not drawn) | – | inactive: 3.08%
41 | O=c1oc2cc(O)ccc2cc1-c1nnc(Nc2ccc(Cl)cc2)s1 | inconclusive: 50.1 µM [inhibitor, partial curve, poor fit] | –
42 | COC(=O)c1ccc(OC(=O)/C=C/c2ccc(Br)o2)cc1 | inconclusive: 79.4 µM [inhibitor, partial curve, poor fit] | –

Row | SMILES | Potency | activity change, negative = inhibition
43 | CCc1ccc(NC(=O)CN(c2ccc(OC)cc2)S(=O)(=O)c2c(C)[nH]c(=O)[nH]c2=O)cc1 | – | inactive: -9.36% [at 57.5 µM]
44 | CCOc1ccc(C(=O)c2cn(Cc3ccccc3OC)c3ccc(F)cc3c2=O)cc1 | inconclusive: 20 µM [inhibitor, full curve, poor fit] | –
45 | Cc1ccc(CN(Cc2ccco2)C(=O)COc2cc(C)c(Cl)c(C)c2)cc1 | inconclusive: 28.2 µM [inhibitor, partial curve] | –
46 | CCc1ccc(C(=O)c2cn(CC(=O)Nc3ccc(OC)c(OC)c3)c3ccc(C)cc3c2=O)cc1 | inconclusive: 3.16 µM [inhibitor, full curve, poor fit] | –
47 | COc1ccc(-c2nnc(SCC(=O)NCc3ccc(C)cc3)nc2-c2ccc(OC)c(OC)c2)cc1OC | inconclusive: 17.8 µM [inhibitor, full curve, poor fit] | –
48 | CCc1ccc(CN(Cc2cn[nH]c2-c2ccc(OC)cc2)C(=O)Nc2ccc(C)c(F)c2)cc1 | inconclusive: 25.1 µM [inhibitor, full curve] | –
49 | Cc1ccc(C(=O)Nc2ccc(-c3nc4ccccc4s3)c(C)c2)cc1 | – | inactive: 4.01%
50 | Cc1ccc(NC(=O)c2cc(S(=O)(=O)N3CCCC(C)C3)cn2C)c(Br)c1 (stereo not drawn) | inconclusive: 28.2 µM [inhibitor, partial curve, poor fit] | –
51 | Cc1ccc(-c2nc3ccccn3c2Nc2ccc3c(c2)OCO3)cc1 | inconclusive: 25.1 µM [inhibitor, full curve, poor fit] | –
52 | Cc1csc2nc(-c3cccc(NC(=O)c4ccccc4Cl)c3)cn12 | inconclusive: 100 µM [inhibitor, partial curve, poor fit] | –
53 | COc1ccc(C(=O)c2cn(Cc3ccc(F)cc3)c3ccc(C)cc3c2=O)cc1 | inconclusive: 22.4 µM [inhibitor, full curve, poor fit] | –
54 | Cc1ccc(CN2C(=O)C(O)(c3c[nH]c4ccccc34)c3cc(Cl)ccc32)cc1 (stereo not drawn) | inconclusive: 100 µM [inhibitor, single point] | –
55 | CCOc1ccc2nc(C)cc(Nc3ccccc3OCC)c2c1 | active: 79.4 µM | –
56 | CCCOc1ccc(CNC(=O)C(CC)n2nc(C)c3sc4ccccc4c3c2=O)cc1 (stereo not drawn) | inconclusive: 17.8 µM [inhibitor, full curve, poor fit] | –
57 | Cn1cc(S(=O)(=O)N2CCCCCC2)cc1C(=O)N1CCN(c2cccc(Cl)c2)CC1 | inconclusive: 44.7 µM [inhibitor, partial curve, poor fit] | –
58 | COc1ccc(NC(=O)CCSc2nc(-c3ccco3)cc(C(F)(F)F)n2)c(OC)c1 | – | inactive: -10.4%
59 | COCCn1cnnc1SC(C)C(=O)c1ccc(F)cc1 (stereo not drawn) | – | inactive: 3.25%
60 | COC(=O)c1c(SC)nc2ccccc2c1OCc1ccccc1C | inconclusive: 79.4 µM [inhibitor, partial curve, poor fit] | –
61 | CCOC(=O)c1c(C)oc2nc(C)nc(NCc3ccc(Cl)cc3)c12 | – | inactive: 8.75%
62 | CCn1cc(C(=O)N2CCN(c3ccccc3F)CC2)c(=O)c2cc(S(=O)(=O)N(C)C3CCCCC3)ccc21 | inconclusive: 7.94 µM [inhibitor, full curve, poor fit] | –
63 | Cc1ccc(Nc2c3c(nc4nncn24)CCC3)cc1C | inconclusive: 44.7 µM [inhibitor, partial curve, poor fit] | –
